According to PubChem BioAssay AID463173 (ICCB-Longwood Screening Facility, Harvard Medical School, 2010):
About 4,300 (8.3%) of roughly 52,000 compounds were called active. No stated cut-off is given here; in the data, active means survival mostly below about 52% (no sharp cut-off); inactive means mostly above about 56%. The list shows a part of the results.

test system: DeltatarO mutant; experiment: S. aureus survival, RN4220 and DeltatarO strains – OD600, teichoic acid synthesis inhibitors, primary screen (AID 463173); conditions: S. aureus RN4220 wild type/DeltatarO growth, OD600, 18 h, hits give low values, screened at 18.75 µg/mL (by protocol)

Row | Structure (SMILES) | survival
1 | COC(=O)CSc1n[nH]c(CNc2cccc(C)c2)n1 | inactive: 57%
2 | Cc1ccc2[nH]c(=O)c3cc(C(=O)NCCc4ccc(Cl)cc4)sc3c2c1 | inactive: 74%
3 | O=C(c1ccc2c(c1)N(Cc1cccc(Cl)c1)C(=O)c1ccccc1S2)N1CCOCC1 | inactive: 82%
4 | c1ccc(OCCn2c(COc3ccccc3)nc3ccccc32)cc1 | active: 0%
5 | O=C1c2oc3ccccc3c(=O)c2C(c2cccc(Cl)c2)N1c1ccccn1 (stereo unspecified) | inactive: 67%
6 | CCOc1ccc2nc(NCCNC(=O)COc3ccccc3)c(C#N)cc2c1 | inactive: 88%
7 | Cc1ccc(NC(=O)Cn2c(=O)n(Cc3ccc4c(c3)OCO4)c(=O)c3ccc(C(=O)NC4CCCCC4)cc32)c(C)c1 | inactive: 100%
8 | CCc1ccc(NC(=O)Cn2c(-c3cncs3)nc3ccccc32)cc1 | inactive: 59%
9 | CC(C)C(Nc1n[nH]c(=O)[nH]c1=O)C(=O)O (stereo unspecified) | inactive: 98%
10 | CCn1c2ccccc2c2cc(CN3CCN(Cc4ccccc4C)CC3)ccc21 | active: -3%
11 | COc1ccc(C)cc1NC(=O)c1ccc2c(c1)nnn2C1CCCC1 | inactive: 87%
12 | COc1ccccc1C(=O)Nc1ccc(OCc2cc(=O)n3cc(C)sc3n2)cc1 | inactive: 130%
13 | COc1ccccc1NC(=O)C1CCC(CNS(=O)(=O)c2ccc3c(c2)CC(C)N3C(C)=O)CC1 (stereo unspecified) | inactive: 58%
14 | O=C(Nc1ccc(S(=O)(=O)N2CCCCCC2)cc1)c1cc(=O)c2ccccc2o1 | inactive: 70%
15 | Cc1cc(-n2c(C)nc3ccccc3c2=O)ccc1NC(=O)c1ccc([N+](=O)[O-])cc1 | inactive: 83%
16 | O=C(Cn1c(=O)c2cccn2c2cccnc21)NCc1ccccc1F | inactive: 78%
17 | CCOC(=O)/C(C#N)=C1\CC2CCC1(C)C2(C)C (stereo unspecified) | inactive: 98%
18 | CC1=C(C(=O)Nc2ccc(C)cc2C)C(c2ccccc2F)n2nc(SCC(=O)c3ccc(C)cc3)nc2N1 (stereo unspecified) | inactive: 129%
19 | O=S(=O)(Nc1ccc(-c2ccc(N3CCCC3)nn2)cc1)c1cc(F)ccc1F | inactive: 96%
20 | Cc1cc2nc(-c3ccc(OCc4ccccc4)cc3)cc(C(F)(F)F)n2n1 | inactive: 79%
21 | CCc1ccc(NC(=O)c2cnc3sc(N4CCCC4)nn3c2=O)cc1 | inactive: 78%
22 | Cc1ccc(CN(Cc2ccco2)C(=O)c2oc3c(C)c(C)ccc3c2C)cc1 | inactive: 50%
23 | COCCNC(=O)c1cc2c(Cl)nc3ccc(C)cc3c2s1 | inactive: 88%

Row | Structure (SMILES) | survival
24 | N#CC1=C(S)N(c2ccccc2)C2(CCCCC2)NC1=O | inactive: 84%
25 | COc1cccc(N(CC(=O)N2CCC(C)CC2)S(=O)(=O)c2ccc(C)cc2)c1 | inactive: 79%
26 | COc1cc(OC)c(Nc2ncnc3onc(-c4cccc(Cl)c4)c23)cc1Cl | inactive: 73%
27 | CCC(C)NC(=O)CSc1nc2cc3c(cc2c(=O)n1CCCC(=O)NCc1ccc2c(c1)OCO2)OCO3 (stereo unspecified) | inactive: 79%
28 | Cc1ccc(-c2nn3c(=O)cc(CN4CCN(C(=O)Nc5cc(Cl)ccc5C)CC4)nc3s2)cc1 | inactive: 113%
29 | Cc1cc(C)cc(OCC(=O)N(Cc2ccc(C)o2)C2CCS(=O)(=O)C2)c1 (stereo unspecified) | inactive: 89%
30 | CCOC(=O)c1c(C)sc(-c2c(-c3ccc(OC)c(F)c3)[nH]c3c2c(=O)[nH]c(=O)n3C)c1O | inactive: 117%
31 | CC(C)Oc1ccc(CNC(=O)c2ccc3nc(Cc4ccccc4)oc3c2)cc1 | inactive: 98%
32 | CCC(CC)C(=O)Nc1ccc2nc(SCC(=O)N3c4ccccc4CC3C)sc2c1 (stereo unspecified) | inactive: 82%
33 | COc1ccc(Cn2nnnc2CN2CCN(c3cc(Cl)ccc3C)CC2)cc1 | inactive: 68%
34 | CC(C)COc1ccccc1C1CC(=O)Nc2cc3c(cc21)OCO3 (stereo unspecified) | inactive: 101%
35 | N#CC1=C(N)OC2=C(C(=O)CCC2)C12CCCC2 | inactive: 96%
36 | CCCOc1cccc(C(=O)NCc2cccnc2)c1 | inactive: 81%
37 | Clc1cccc(-n2ncc3c(N4CCN(Cc5ccccc5)CC4)ncnc32)c1 | active: 25%
38 | COc1cccc(CNC(=O)Cn2ccc3cc(S(=O)(=O)N4CCC(C)CC4)ccc32)c1 | inactive: 60%
39 | CCc1ccc(NC(=O)CSc2nnc(-c3cc4occc4n3C)n2-c2ccccc2C)cc1 | inactive: 85%
40 | Cn1c(=O)c2c(-c3ccccc3Br)n(CCc3ccccc3)cc2n(C)c1=O | active: 45%
41 | CCCCOc1ccc(C2=NC(c3ccccc3)=Nc3ccc(OC)cc3N2)cc1 | inactive: 74%
42 | C=CCc1c(C)nc2nc(SCC(=O)Nc3ccc(OCC)cc3)nn2c1C | inactive: 124%
43 | COc1ccccc1CNC(=O)Cn1nc(C)c2nn(-c3ccc(Cl)cc3)c(C)c2c1=O | inactive: 63%
44 | CC(C)c1ccc(Nc2ncnc3c2c(-c2ccccc2)cn3-c2ccccc2)cc1 | inactive: 81%
45 | Cc1cc(C)cc(NC(=O)C2(c3cccs3)CCOCC2)c1 | inactive: 96%
46 | COC(=O)C1=C(C)NC(=O)C1(NC(=O)c1ccccc1C)C(F)(F)F (stereo unspecified) | inactive: 74%

Row | Structure (SMILES) | survival
47 | COCCNC(=O)CSc1nc(-c2ccc(C)cc2)nc2c1c(=O)n(C)c(=O)n2C | inactive: 91%
48 | COc1ccc(CCC(=O)NCc2ccc3c(c2)CCN3C(=O)c2ccc(C)cc2)cc1 | inactive: 75%
49 | CCOCCCn1c(=N)c(C(=O)NCC2CCCO2)cc2c(=O)n3cc(C)ccc3nc21 (stereo unspecified) | inactive: 80%
50 | COc1cccc(-c2nc(SCC(=O)N3CCc4ccccc43)c3c(=O)n(C)c(=O)n(C)c3n2)c1 | inactive: 124%
51 | O=S(=O)(c1ccccc1)N1CCc2ccccc21 | inactive: 86%
52 | O=C(O)c1n[nH]c2c1CCCCC2 | inactive: 82%
53 | COc1ccc(NC(=O)Cn2ccn(-c3ccccc3)c(=O)c2=O)cc1 | inactive: 52%
54 | O=C(CCn1[nH]c(=O)c2ccccc2c1=O)NCCO | inactive: 60%
55 | Cc1ccc(-n2nc(C)c3c(C(=O)Nc4ccc(Br)c(C)c4)cc(C)nc32)cc1 | inactive: 101%
56 | O=C(Nc1ccc(Cl)cc1-c1nc2ccccc2s1)c1ccco1 | inactive: 74%
57 | CCOc1ccc(CNC(=O)CCCn2c(=O)c3cccn3c3ccc(F)cc32)cc1 | active: 41%
58 | Cn1c(=O)c(=O)n(C)c2cc(NC(=O)c3ccccc3Br)ccc21 | inactive: 103%
59 | CC(=O)N1CCc2c(sc3c2c(=O)n(Cc2ccccc2)c(=O)n3CC(=O)Nc2ccc(C)c(F)c2)C1 | inactive: 102%
60 | COc1ccc(CN2C(=O)C(NC(=O)c3ccccc3OC)(C(F)(F)F)N=C2c2ccccc2)cc1 (stereo unspecified) | inactive: 87%
61 | CCc1ccc(NC(=O)CCn2cnc3ccccc3c2=O)cc1 | inactive: 82%
62 | Cc1cc(C)n(CCOc2nonc2N)n1 | inactive: 75%
63 | CCc1ccc(S(=O)(=O)c2nnn(-c3cccc(C)c3)c2N)cc1 | inactive: 60%
64 | CCOc1ccccc1CNC(=O)CN1C(=O)CCc2cc(S(=O)(=O)N3CCCCC3)ccc21 | inactive: 89%
65 | Cc1cccc(OCC(=O)Nc2ccc3nc(Nc4cccc(Cl)c4)cc(C)c3c2)c1 | inactive: 115%
66 | O=C(NC1CCCCC1)c1cccnc1Nc1ccccc1F | inactive: 78%
67 | COc1ccccc1NC(=O)c1c(NC(=O)c2ccccc2Cl)sc2c1CCC2 | inactive: 78%
68 | CN1CC=C2C(C#N)=C(N)C(C#N)(C#N)C(CCc3ccccc3)C2C1 (stereo unspecified) | inactive: 81%
69 | CCC(C(=O)NCCCN(CC)CC)n1ncn2c(cc3occc32)c1=O (stereo unspecified) | inactive: 98%

Row | Structure (SMILES) | survival
70 | CCOc1ccc(CNC(=O)C2Cc3cc(S(=O)(=O)N4CCCCCC4)ccc3N2C(C)=O)cc1 (stereo unspecified) | inactive: 74%
71 | Cc1ccc2c(c1)C1OCCC1C(c1ccncc1)N2 (stereo unspecified) | inactive: 86%
72 | CC1OCC(OC(=O)c2ccccc2)CO1 (stereo unspecified) | inactive: 108%
73 | Cc1ccc(NC(=O)Cn2c(-c3nonc3N)nc3ccccc32)cc1Cl | inactive: 77%
74 | O=C(CCn1cnc2onc(-c3ccc(F)cc3)c2c1=O)N1CCN(c2cccc(Cl)c2)CC1 | inactive: 76%
75 | O=C(Nc1ccccc1C(F)(F)F)N1CCN(c2ccc3nnc(-c4ccc(F)cc4)n3n2)CC1 | inactive: 58%
76 | Cc1ccc2c(c1)c(C)cc(=O)n2CCC(=O)O | inactive: 79%
77 | CCc1ccc(S(=O)(=O)c2nnn3c2nc(NCc2ccccc2OC)c2cc(Cl)ccc23)cc1 | inactive: 103%
78 | Cc1ccccc1-c1noc(-c2ccccc2OCC(=O)Nc2ccccc2[N+](=O)[O-])n1 | inactive: 45%
79 | CCc1ccc(NC(=O)CN(Cc2ccccc2)S(=O)(=O)c2ccc3nc(C)sc3c2)cc1 | inactive: 80%
80 | COc1ccc(C2NC(=O)N(C)C3=C2C(=O)N(c2ccc(C)cc2)C3)cc1 (stereo unspecified) | inactive: 74%
81 | O=C1C2C(C(=O)N1CC1CCCO1)C1C=CC2C12CC2 (stereo unspecified) | inactive: 80%
82 | CCOc1ccc(OCC)c(NC(=O)C2CCN(c3cnccn3)CC2)c1 | inactive: 85%
83 | O=C(Nc1nnc(S(=O)(=O)N2CCOCC2)s1)c1ccc(F)cc1 | inactive: 78%
84 | O=C(O)c1cc2ccccc2[nH]c1=O | inactive: 107%
85 | N#Cc1cccc(NC(=O)c2ccc3c(c2)N(Cc2cccc(Cl)c2)C(=O)c2ccccc2S3(=O)=O)c1 | inactive: 94%
86 | O=C(c1ccc(F)cc1F)N1CCC(c2noc(-c3ccc(S(=O)(=O)N4CCCC4)cc3)n2)CC1 | inactive: 97%
87 | O=C(CNS(=O)(=O)c1ccccc1)NCc1ccccn1 | inactive: 63%
88 | CC(Nc1ccc(-c2nc(-c3ccccn3)no2)cc1[N+](=O)[O-])c1ccccc1 (stereo unspecified) | active: 19%
89 | Cc1ccc(C)c(Cn2nc(C)n3c(cc4cc(C)ccc43)c2=O)c1 | inactive: 96%
90 | COC(=O)c1ccc(OCC2c3cc(OC)c(OC)cc3CCN2C(=O)c2ccccc2F)cc1 (stereo unspecified) | inactive: 86%
91 | Cc1ccc(CNC(=O)c2c(-c3cccc(Br)c3)noc2C)o1 | inactive: 87%
